A collection of fitness landscapes (doi:10.1016/j.celrep.2020.107928)
Whole data set: some 81,000 sequences, median “one-hybrid fitness for binding parS DNA” near -0.17, cut for the highest 2% near 0.51. Some of the results follow.

B1: Caulobacter ParB omega fusion; a variant is named by its letters at X, in order, B8GW30 (parent)
chain: MESVVVGEPGMSEGRRGLGRGLSALLGEVDAAPAQAPGEQLGGSREAPIEILQRNPDQPRRTFREEDLEDLSNSIREKGVLQPILVRPSPDTAGEYQIVAGERAWRAAQRAGLKTVPIMVRELDDLAVLEIGIIENVQRADLNVLEEALSYKVLMEKFERTQENIAQTIGKSXSHVANXMRLLXLPDEVQSYLVSGELTAXHARAIAAAADPVALAKQIIEGGLSVRETEALARKAPNLSAGKSKGGRPPRVKDTDTQALESDLSSVLGLDVSIDHRGSTGTLTITYATLEQLDDLCNRLTRGI

Variants of: B1
Assay: one-hybrid fitness for binding parS DNA (scaled: cognate 1, non-cognate 0); higher = stronger binding
Conditions: with parS DNA site
Outline: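 Fitness here means the log change in variant-to-wild-type read ratio between plasmids sequenced before and after selection. That scale was set so cognate equals 1 and non-cognate equals 0. The selection was a bacterial one-hybrid screen of Caulobacter ParB libraries, four specificity codons randomised, in E. coli USO carrying a HIS3 reporter with the site 19 bp from the promoter, grown 48 hours at 37°C on M9-minus-histidine with 0.1 mM IPTG and 5 mM 3-AT.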

one-hybrid fitness for binding parS DNA, 0.899:
RKES

one-hybrid fitness for binding parS DNA, 0.221:
RTPY

one-hybrid fitness for binding parS DNA, ≤ 0.2:
TVPS
AGGS
SQEM
KRFM
GSAS
PDPR
PDVF
ELYG
APTY
KRDC
AYER
SLSV
NSVN
FCKR
YHVW
YYQV
FPRC
LDRR
QNRH
PFYS
HQCT
WKTR
LYVC
LWAL
HADM
NVGW
SPRQ
LNCR
LRPW
GVRF
KCCC
KSPM
FAPC
LSTK
NCWS
QYYT
KQPL
CSTA
YLDA
PSAE
LDVR
FEQS
QTWR
LFVM
NPNL
LSFT
IDPD
LQET
DKKC
NAPI
LPPC
IQKS
CNAT
RGTW
PLDC
NATS
PTHC
NLTC
MCRC
ELRF
MSPC
EIHS
QYTR
SFWY
IYAM
WWSG
FHRN
RIKL
TVNM
ILIS
RRFV
YCTY
PIGT
PSPL
ISLV
LNHC
LFTW
AMSY
NDRY
GSMI
SKSH
YTYD
NANF
EYMT
ILYP
GNWG
RHFK
MFMG
LGLM
MKTK
APVY
QKHC
LKCV
LWHT
QWYT
VYVL
FEAS
TFTF
QVPD
FNYI
HRWH
GSSF
KYAK
RDHQ
LAFS
YYHN
QCNF
CRKY
PVDT
QKHN
MSPG
ACYR
AGAS
CAPV
QMND
FGAF
VPIK
NCVG
HRLM
RAPP
HARC
QGQL
YCNG
PGDW
DYHR
PTYH
AGKI
SWHI
VGHT
MGVS
GRIR
PWSI
QARN
HTGY
MVFS
YAPP
VFTP
RPMY
GLNS
ATVG
PHDV
QAVN
ILIG
QVAP
FRNS
QKFT
NACG
QNMN
KHQH
QILF
IPTK
GHLM
DEYM
TTFT
AWVD
SRPE
TPGN
HPKC
NAHG
SNNC
MVSR
SSSD
DNIS
SNKA
CTWP
RCTD
QPNT
APHR
TQLS
AFPL
CRNG
YLQC
SQIR
KRWR
TKPG
QLFG
TTCH
LDSR
VEPS

one-hybrid fitness for binding parS DNA, 0.551:
RRQT

one-hybrid fitness for binding parS DNA, 0.915:
RATT

one-hybrid fitness for binding parS DNA, 0.546:
RHGA

one-hybrid fitness for binding parS DNA, 0.815:
RRLA

one-hybrid fitness for binding parS DNA, 0.205:
RCAQ

one-hybrid fitness for binding parS DNA, 0.608:
RVCA

one-hybrid fitness for binding parS DNA, 0.946:
RIVG

one-hybrid fitness for binding parS DNA, 0.258:
RLFH

one-hybrid fitness for binding parS DNA, 0.25:
RCAD

one-hybrid fitness for binding parS DNA, 0.213:
GSKD

one-hybrid fitness for binding parS DNA, 0.727:
RFEC

one-hybrid fitness for binding parS DNA, 0.217:
RYLF

one-hybrid fitness for binding parS DNA, 0.225:
RASH

one-hybrid fitness for binding parS DNA, 0.499:
RIIA
